Results from the supplement of paper PMC10126150.
Sequences with one replicate were seen in a single cluster, so their values are uncertain.

Tested on: ATP
Assay: switch fluorescence ratio, 500 uM ATP over buffer (Cy3 cluster intensity, sum of 5 cycles each) (fold (ratio)); higher = stronger signal-on switching upon ATP binding; sequences stand for … in TCGTCGGCAGCGTCAGATGTGTATAAGAGACAGTTTTTTTTTTTTTTTTTTTTTTTTT…TC
Conditions: aptamer strand: ATP DNA aptamer (quencher-CACCTGGGGGAGTATTGCGGAGGAAGG + anchor), 100 nM annealed; ATP concentration: 500 uM; one replicate
In short: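 Clusters carrying Cy3-labelled switching strands on a modified Illumina MiSeq flow-cell were annealed to 100 nM quencher-labelled ATP aptamer and imaged in selection buffer. They were imaged again after 15 min with 500 uM ATP at 22 °C, over five buffer/ATP cycles with NaOH stripping and re-annealing in between. For each cluster, the fluorescence ratio is the summed Cy3 intensity of the target cycles divided by that of the buffer cycles, averaged per switch-domain sequence. Clusters outside 100-1000 RFU were left out.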
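Note: ATP exposure 15 min at 22 °C before imaging.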

Sequence: TTCGATGTTA
- switch fluorescence ratio: 1.02

Sequence: CATGTAACG
- switch fluorescence ratio: 1.04

Sequence: TTACTTGAC
- switch fluorescence ratio: 1.12

Sequence: GTTACTGTTG
- switch fluorescence ratio: 1.03

Sequence: CCAGAGTAC
- switch fluorescence ratio: 1.13

Sequence: AATTCGATTT
- switch fluorescence ratio: 0.983

Sequence: CGAAGTCGAG
- switch fluorescence ratio: 1.03

Sequence: TTGCGGGCGT
- switch fluorescence ratio: 1

Sequence: CGTTCGGGTG
- switch fluorescence ratio: 1

Sequence: GTTGGGCAC
- switch fluorescence ratio: 0.972

Sequence: AAATATAGAG
- switch fluorescence ratio: 1.03

Sequence: AGATAATCGT
- switch fluorescence ratio: 1.02

Sequence: CTTTTCTCGG
- switch fluorescence ratio: 1.15

Sequence: AATCAGATAT
- switch fluorescence ratio: 1.03

Sequence: ATTGCAGGTA
- switch fluorescence ratio: 1.02

Sequence: CGTGGCGAAC
- switch fluorescence ratio: 1.06

Sequence: ATCAAAAAGT
- switch fluorescence ratio: 1.04

Sequence: TTGCTAACTT
- switch fluorescence ratio: 0.945

Sequence: CTCCTCAGTA
- switch fluorescence ratio: 2.18

Sequence: AGGTACCTGA
- switch fluorescence ratio: 1.04

Sequence: CGCGCTGGTC
- switch fluorescence ratio: 1.05

Sequence: TGTGCATTGG
- switch fluorescence ratio: 1.01

Sequence: GATATAATT
- switch fluorescence ratio: 1.01

Sequence: TACAATTTGT
- switch fluorescence ratio: 0.921

Sequence: GGCAATCAAA
- switch fluorescence ratio: 1.06

Sequence: TGCAGGTGTC
- switch fluorescence ratio: 1.51

Sequence: TGACGATTC
- switch fluorescence ratio: 1.98

Sequence: TAATCATTA
- switch fluorescence ratio: 1.01

Sequence: GAGGGGTCAA
- switch fluorescence ratio: 1.01

Sequence: GGACTGGGGG
- switch fluorescence ratio: 0.984

Sequence: TCGTATCTAA
- switch fluorescence ratio: 0.99

Sequence: TTGCCGAAAA
- switch fluorescence ratio: 1.02

Sequence: GGGGGCTCTT
- switch fluorescence ratio: 0.985

Sequence: TAATTGTGAG
- switch fluorescence ratio: 1.01

Sequence: AACTGCTGC
- switch fluorescence ratio: 1.05

Sequence: GTATATAGTG
- switch fluorescence ratio: 1.01

Sequence: CCAGGTTGGT
- switch fluorescence ratio: 1.28

Sequence: CGTCCTAATG
- switch fluorescence ratio: 1.07

Sequence: CTAAAAGCTT
- switch fluorescence ratio: 0.979

Sequence: CACCCAGTTC
- switch fluorescence ratio: 1.18

Sequence: ACGGTACGCC
- switch fluorescence ratio: 1.15

Sequence: TATCTGCATC
- switch fluorescence ratio: 1.47

Sequence: CGTTGCGGGC
- switch fluorescence ratio: 1.12

Sequence: CAGTTGCAGG
- switch fluorescence ratio: 1

Sequence: GACTGTGCGG
- switch fluorescence ratio: 1.02

Sequence: CATCGATTTA
- switch fluorescence ratio: 0.976

Sequence: GGCGGGTTTA
- switch fluorescence ratio: 0.959

Sequence: TTGCTAGGAG
- switch fluorescence ratio: 0.937

Sequence: ACTCACTACT
- switch fluorescence ratio: 1.28

Sequence: GTAATGGGAA
- switch fluorescence ratio: 0.987

Sequence: ATTTGCGGGG
- switch fluorescence ratio: 0.996

Sequence: TAATCCCGAT
- switch fluorescence ratio: 0.936

Sequence: AGGGAGCCAA
- switch fluorescence ratio: 0.968

Sequence: TTATGGGTT
- switch fluorescence ratio: 1.01

Sequence: AACTTGACGG
- switch fluorescence ratio: 1.06

Sequence: CGGATCGTGC
- switch fluorescence ratio: 1.01

Sequence: ATATTATAAC
- switch fluorescence ratio: 0.986

Sequence: ATGCGTACAG
- switch fluorescence ratio: 0.99

Sequence: TACCGCACGC
- switch fluorescence ratio: 3.32

Sequence: CTGAGGTATA
- switch fluorescence ratio: 0.966

Sequence: GATGTATAGG
- switch fluorescence ratio: 1.03

Sequence: AACGCGAGCC
- switch fluorescence ratio: 1.34

Sequence: GCATCGTACT
- switch fluorescence ratio: 1.08

Sequence: TCTCGCCCTT
- switch fluorescence ratio: 1.59

Sequence: CCATTAAAGT
- switch fluorescence ratio: 0.999

Sequence: GGGCCAATAC
- switch fluorescence ratio: 3.03

Sequence: AATGTTCGTC
- switch fluorescence ratio: 0.984

Sequence: CTACATTGA
- switch fluorescence ratio: 1.03

Sequence: CTTAGTTATG
- switch fluorescence ratio: 0.99

Sequence: TTAGTACTT
- switch fluorescence ratio: 0.96

Sequence: GGGGTGGAGA
- switch fluorescence ratio: 1.04

Sequence: ATAGGGGTAT
- switch fluorescence ratio: 0.977

Sequence: GCTGGAACGT
- switch fluorescence ratio: 1.12

Sequence: AGTTAATGTA
- switch fluorescence ratio: 0.983

Sequence: TAAAACCGT
- switch fluorescence ratio: 1.03

Sequence: CCTTACATCA
- switch fluorescence ratio: 1.02

Sequence: TTTCGGTTAC
- switch fluorescence ratio: 1.09

Sequence: AGGGATCTT
- switch fluorescence ratio: 1.03

Sequence: CATCGTACAG
- switch fluorescence ratio: 1.04

Sequence: ATCTCTGCAG
- switch fluorescence ratio: 1.89

Sequence: TCTAAATGCC
- switch fluorescence ratio: 1.34

Sequence: TAATTTCGTA
- switch fluorescence ratio: 0.932

Sequence: CGGTCCAGTG
- switch fluorescence ratio: 1.06

Sequence: GCCCTCAACT
- switch fluorescence ratio: 0.987

Sequence: GGTTAGTGAA
- switch fluorescence ratio: 1

Sequence: AACTGGTGCC
- switch fluorescence ratio: 1.07

Sequence: TTCTATCTGA
- switch fluorescence ratio: 0.966

Sequence: TACATGGTAG
- switch fluorescence ratio: 0.961

Sequence: TCCTTGTCCG
- switch fluorescence ratio: 1.09

Sequence: GCAGTAGGCG
- switch fluorescence ratio: 1.02

Sequence: GGTTAGAAGC
- switch fluorescence ratio: 1.01

Sequence: CGCGGCCACT
- switch fluorescence ratio: 1.07

Sequence: ATGCGGGCCT
- switch fluorescence ratio: 1.02

Sequence: CCAGACCCAA
- switch fluorescence ratio: 1.14

Sequence: GACTTTTGTG
- switch fluorescence ratio: 1.01

Sequence: TGATTCCCGT
- switch fluorescence ratio: 0.994

Sequence: ATGCGCGCAC
- switch fluorescence ratio: 1.01

Sequence: GTGATGCTAT
- switch fluorescence ratio: 1.02

Sequence: TCAGTTTTG
- switch fluorescence ratio: 1.04

Sequence: CAGGACAAGG
- switch fluorescence ratio: 0.94

Sequence: GCCTAACGAT
- switch fluorescence ratio: 1.03

Sequence: ATGGTTATCA
- switch fluorescence ratio: 1.01

Sequence: TATGAAGGAC
- switch fluorescence ratio: 1.01

Sequence: CATATGGG
- switch fluorescence ratio: 0.965

Sequence: CTAGGGCCAG
- switch fluorescence ratio: 0.97

Sequence: TTCAATCAT
- switch fluorescence ratio: 1.04

Sequence: TCAGTCACGA
- switch fluorescence ratio: 1.02

Sequence: TCTTTAGCCA
- switch fluorescence ratio: 0.967

Sequence: CGCATATCGC
- switch fluorescence ratio: 3.22

Sequence: GCAGGAGAGC
- switch fluorescence ratio: 1.06

Sequence: GCAGCCTGGA
- switch fluorescence ratio: 1.05

Sequence: CGATTTCTA
- switch fluorescence ratio: 1

Sequence: AGGATAATTG
- switch fluorescence ratio: 0.958

Sequence: ATCATAATAA
- switch fluorescence ratio: 1.04

Sequence: TTGCCCCCCT
- switch fluorescence ratio: 1.19

Sequence: GTTGGTGGAG
- switch fluorescence ratio: 1.03

Sequence: TATTTAATGC
- switch fluorescence ratio: 1.07

Sequence: CATCAAAGAA
- switch fluorescence ratio: 1.01

Sequence: ACGGTTGGAG
- switch fluorescence ratio: 1

Sequence: GATGCTAGTT
- switch fluorescence ratio: 0.995

Sequence: CAAATGACCC
- switch fluorescence ratio: 0.99

Sequence: CCGTAGTTAT
- switch fluorescence ratio: 3.21

Sequence: AGCCAATGAT
- switch fluorescence ratio: 0.98

Sequence: AAGGATGCGC
- switch fluorescence ratio: 1.05

Sequence: AAGGCCAGAT
- switch fluorescence ratio: 0.966

Sequence: CTTTTTGGGC
- switch fluorescence ratio: 0.982

Sequence: TTAGGCCTCT
- switch fluorescence ratio: 0.959

Sequence: AACACCCGTG
- switch fluorescence ratio: 0.997

Sequence: ACTCTGTTCC
- switch fluorescence ratio: 1.07

Sequence: AGGTTTGGCC
- switch fluorescence ratio: 0.999

Sequence: AAGATCGGTA
- switch fluorescence ratio: 0.979

Sequence: CTATTTCCGA
- switch fluorescence ratio: 1.09

Sequence: TCATCTATGT
- switch fluorescence ratio: 0.984

Sequence: TGGATGTAT
- switch fluorescence ratio: 0.978

Sequence: ATCGACCAAC
- switch fluorescence ratio: 1.21

Sequence: AATCGGTTTT
- switch fluorescence ratio: 1.03

Sequence: GGACGTTTAT
- switch fluorescence ratio: 0.918

Sequence: GAGGTTCAAG
- switch fluorescence ratio: 0.947

Sequence: ATTATGAGA
- switch fluorescence ratio: 1.03

Sequence: GATACATTCT
- switch fluorescence ratio: 0.984

Sequence: GACAAGAGGA
- switch fluorescence ratio: 1.05

Sequence: AGGAAAAAAC
- switch fluorescence ratio: 1.23

Sequence: CCAGTCTTTA
- switch fluorescence ratio: 1

Sequence: TAAAGAGGAG
- switch fluorescence ratio: 0.979

Sequence: AGTGCTAGGC
- switch fluorescence ratio: 0.991

Sequence: GCTCGCGAAT
- switch fluorescence ratio: 1.17

Sequence: ACGAGTGGAT
- switch fluorescence ratio: 0.996

Sequence: GATGACACGC
- switch fluorescence ratio: 1.08

Sequence: TTACAGCGTA
- switch fluorescence ratio: 1.07

Sequence: ACGTCATGCA
- switch fluorescence ratio: 1.15

Sequence: CGCGGAGTTG
- switch fluorescence ratio: 0.993

Sequence: GGACAAAAAA
- switch fluorescence ratio: 1

Sequence: TGGACTTAGT
- switch fluorescence ratio: 1

Sequence: TTCAACTCGG
- switch fluorescence ratio: 1.02

Sequence: TCCCTGGAAT
- switch fluorescence ratio: 2.08

Sequence: GTCGAAATGG
- switch fluorescence ratio: 1.14

Sequence: CGATCCCACA
- switch fluorescence ratio: 1.01
